# Measurements from ChEMBL document CHEMBL4888484, “Replenishing the malaria drug discovery pipeline: Screening and hit evaluation of the MMV Hit Generation Library 1 (HGL1) against asexual blood stage Plasmodium falciparum ,using a nano luciferase reporter read-out” (2022).
# Several values for one entry are separate records, joined by “and”; a condition that tells them apart may be missing. Identical values can stand only once. Hit rate of the full screen: of about 150,000 compounds, about 540 (0.36%) showed an effect of 50% or more. The list shows a part of the results.
# Tested on: Plasmodium falciparum
# Test: Primary screen in NF54 nanoGlo assay, in single point, at 2uM, 72h; a lower Z score goes with more inhibition
# Format: functional, Erythrocyte
# Settings: timepoint 72 hour
Structure (SMILES),% Inhibition [%],Z score,% Inhibition (2 µM)
COCC(=O)N1CC[C@@]2(CCCN(Cc3cc(OC)ccc3F)C2=O)C1,-2,0.45,–
C=C(C)CN(CC)C(=O)Nc1ccc(OC2CCOCC2)c(C)c1,2,-0.25,–
CCc1cc(C(=O)N2CC[C@H]3[C@H](CCC(=O)N3CCc3c[nH]cn3)C2)on1,5,-0.96,–
Cc1cc(O)ccc1C(=O)N(C)CCN(C)C1CCCC1,-12,1.53,–
CC(C)C(N[C@@H](C)CO)c1ccc(F)c(F)c1 (stereo not given in full),-8,0.97,–
CN(C)Cc1ccc(CC2CCN(Cc3cccnc3)CC2)cc1,-5,0.68,–
Cc1ccc(CN2CCC(N3C(=O)[C@H]4CCCN4C3=O)C2=O)cc1 (stereo not given in full),-7,0.81,–
c1ccc(-c2nc(CN3CCc4cncnc4C3)cs2)cc1,-12,1.77,–
CC(OCC1CCCO1)C(=O)N1CCCc2cccc(F)c21 (stereo not given),11,-1.46,–
Cc1cc2nc(C)c(=O)n(CC(=O)NCCCN3CCCC[C@@H]3C)c2cc1C,-3,0.63,–
CCC1(CC)CCN(C(=O)[C@H]2CCCN(C3CCN(Cc4cccnc4)CC3)C2)C1,1,-0.14,–
CC[C@H](NCc1cc(C#CCO)cs1)c1nc(C)c(C)s1,-8,0.83,–
CN(C)c1ccc(/C=C/c2ccnc3ccc(-c4ccccc4)cc23)cc1,16,-2.11,–
N#Cc1ccc(OCC(=O)N2CCn3c2nc2ccccc23)cc1,4,-0.68,–
Cc1ccc(NC(=O)c2scc(-c3ccc(F)cc3)c2S(=O)(=O)N(C)c2cccc(F)c2)cc1,-4,0.48,–
O=C(CN[C@H](c1ccccc1)C1CCCCC1)Nc1nnc(-c2ccco2)o1,-4,0.63,–
CCCCCOCC(=O)Nc1cc(-c2nccn2C)n[nH]1,-8,1.3,–
Cc1nccnc1N1CC[C@H]2[C@H](CCC(=O)N2CCc2ccccn2)C1,-11,2,–
CCc1n[nH]c(NC(=O)Cc2ccc(C)nc2)c1Br,-9,0.92,–
Cc1nc(C(=O)NC2CCCC2)c(C)o1,-4,0.52,–
O=C(CCc1cc(O)no1)N1CCc2ncnc(N3CCCC3)c2CC1,-6,1,–

Structure (SMILES),% Inhibition [%],Z score,% Inhibition (2 µM)
CCCOC[C@H]1CCN(C(=O)c2cnn3ccn(C)c23)C1,2,-0.28,–
C#Cc1cncc(-c2noc([C@@](C)(O)C3CC3)n2)c1,-26,2.75,–
Cn1nnc2c(C(=O)NCC3(C(F)F)CC3)ccnc21,-9,1.23,–
NS(=O)(=O)c1ccc(CCNC(=O)[C@@H]2CCN2S(=O)(=O)c2ccccc2)cc1,-42,4.89,–
CCn1nc(CN2CC[C@@]3(C2)C(=O)Nc2ccccc23)c2ccccc21,2,-0.33,–
Cc1cc(-c2c(-c3ccc4ccccc4c3)[nH]c3c2c(=O)n(C)c(=O)n3C)c(C)s1,-1,0.25,–
CC(C)CCn1c(C(=O)Nc2ccccc2)cc2cc(NC(=O)c3ccc(F)cc3)ccc21,5,-0.57,–
CCCCc1nc(C)c(C(=O)NCc2c(C)cc(C)[nH]c2=O)s1,-3,0.34,–
CC(C)c1[nH]ncc1C(=O)N[C@H]1CCCN(c2cccc(F)c2)C1,7,-1.09,–
Oc1ccc2ccccc2c1CN1CCc2ccccc21,-25,2.96,–
C(=C[C@@H]1CCCCCN1)c1ccccc1,-11,1.66,–
COc1ccc(C(=O)Nc2ccc3c(c2)C(=O)Nc2cccnc2O3)cc1OC,–,–,41% and 20%
COCC1(F)CCN(Cc2c(-c3cccc(C)c3)nc3ccccn23)CC1,-19,3.38,–
Cc1oc(C)c(C(=O)N2CCCN3CCC[C@H]3C2)c1C,-1,0.21,–
CC1CCCN(C(=O)c2cc(Oc3ccccc3)ccn2)C1CN (stereo not given),2,-0.29,–
O=C(NC1CC1)[C@H]1CCCN(c2snc3ccccc23)C1,-3,0.32,–
COc1ccc(Nc2cc(C(=O)N3CCC(C)CC3)nc3ccc(F)cc23)c(OC)c1,-10,1.08,–
C[C@H](Nc1ccc(C#N)cn1)c1cccc(-n2cccn2)c1,0,0.03,–
Cc1cc(C)n(C[C@H](C)N2CCOc3ccccc3C2)n1,-9,1.41,–
CN1CCC(n2nc(-c3ccccn3)nc2[C@@H]2COc3ccccc3C2)CC1,-11,1.41,–
O=C(Cc1cccnc1)NCc1cccc(-c2nnn[nH]2)c1,-10,0.94,–

Structure (SMILES),% Inhibition [%],Z score,% Inhibition (2 µM)
O=S(=O)(c1ccc2c(c1)OCCO2)N1CCC[C@@](O)(CO)C1,-5,0.88,–
CN(Cc1ccc(O)cc1)c1ncnc2nc(N)ccc12,-14,1.82,–
C[C@@H](CNC(=O)NCc1cccnc1)N(C)Cc1ccccc1,1,-0.24,–
Cn1cc(CNC(=O)N2CCC(CCc3ccc(F)cc3F)CC2)nn1,8,-1.55,–
Cc1ccc2c(c1)C[C@@H](C(=O)NCCc1csc(N)n1)N2,5,-0.81,–
CCCCOc1c(Cl)cc(CNC(C)(C)CO)cc1OCC,14,-1.87,–
Cc1cccc(C2CC2C(=O)N2CCN(c3ncc(F)cn3)CC2)c1 (stereo not given),4,-0.34,–
CCOC(=O)c1cnc(N2CCN(Cc3cccnc3)CC2)s1,-2,0.17,–
c1ccc(OCCN(Cc2ccc3[nH]ccc3c2)C[C@H]2CCCO2)cc1,-6,1.23,–
O=C(NCc1ccccc1O)[C@]1(c2ccccc2)CCCN1,-15,2.54,–
CC(C)(CNC(=O)COc1ccc(CC#N)cc1)N1CCCCC1,-35,4.06,–
Cn1cnnc1-c1nn(C)c2c1CN(C(=O)Cc1cccc(F)c1)CC2,-12,1.76,–
Cc1cc(C)c(NC(=O)[C@H]2CC(=O)N(c3ccc(OCc4ccc(Cl)cc4)cc3)C2)c(C)c1,-5,0.58,–
Cc1ccc([C@H]2C[C@@H](C(F)(F)F)n3ncc(C(=O)N4CCN(c5ccc(F)cc5)CC4)c3N2)cc1,-5,0.75,–
CN(C)c1ncc(CN2CCC[C@H](C(=O)Cc3ccccc3)C2)cn1,1,-0.08,–
Cc1nnc(C(C)NC(C)[C@H]2COC(C)(C)O2)s1 (stereo not given in full),16,-2.03,–
Cc1cccc(C(=O)N(CC2CCN(C3Cc4ccccc4C3)CC2)C[C@H]2CCCO2)n1,-1,0.08,–
CCn1ncnc1[C@H](C)Nc1nnc(C2CC2)o1,0,0.04,–
Cc1nn2cc(S(=O)(=O)N[C@H]3CC(=O)N(C(C)C)C3=O)cnc2c1Cl,-2,0.22,–
COc1cc(NC(=O)Nc2ccc(Nc3ccc(C)nn3)cc2)cc(OC)c1,1,-0.1,–
O=C(Cn1ccnn1)NC1CCCCCC1,0,-0.08,–

Structure (SMILES),% Inhibition [%],Z score,% Inhibition (2 µM)
Cc1nc(CNC(=O)NC2CCCC2CCC(C)C)no1 (stereo not given),-5,0.88,–
CN(C)c1nc(N2CCN(C3CCCCC3)CC2)nc2c1CN(S(=O)(=O)c1ccc(Cl)cc1)CC2,-1,0.28,–
Cc1nc2ccc(Cl)cc2cc1C(=O)N1CCN(Cc2ccc3c(c2)OCCO3)CC1,-4,0.7,–
CC(C)CN1CC[C@H](c2nc3ccc(C#N)cc3[nH]2)C1,32,-3.6,–
O=S(=O)(NCC1CN2CCCC2CO1)c1cccs1 (stereo not given),-11,1.28,–
O=C(Cc1noc(COCc2ccccc2)n1)NC1CCCCC1,-8,0.97,–
CCCn1ncc(C(=O)N2CCC3(CCC(=O)N([C@H]4CCN(C)C4)C3)CC2)c1C,-20,2.09,–
O=C(Cn1cnc2ccccc21)NC(c1ccc(F)cc1)[C@H]1C[C@@H](O)C1 (stereo not given in full),-7,1.25,–
c1cncc(COC2CCN(c3cc([C@H]4CCOC4)ncn3)CC2)c1,3,-0.34,–
CC(C)Oc1ccc([C@@H](O)CNC(=O)C(C)(C)c2cccs2)cc1,-1,0.14,–
COc1cccc(NS(=O)(=O)c2cc(C(=O)N3CCN(c4ccccc4)CC3)ccc2NCc2ccc(F)cc2)c1,2,-0.18,–
CC1CCN(C(=O)[C@H]2CCCN(S(=O)(=O)c3ccccc3)CCc3nnc(-c4cccnc4)n3CC2)CC1,6,-0.77,–
Cc1cc(-c2nc(CC3CCN(C)CC3)nn2CCO)c2c(C)noc2n1,4,-0.75,–
CC(NC(=O)c1cccn1Cc1ccccc1)C1CCCO1 (stereo not given),-14,1.87,–
Cc1nn(C)c(C)c1[C@H](C)n1cnc2cnccc2c1=O,0,0.07,–
CCCC1CCC(N(C(=O)c2cnc3c(c2)nnn3C)C(C)C)CC1 (stereo not given),-20,2.74,–
CC(C)(C)OC(=O)N1CCCC2C(N)C(C)(C)C21 (stereo not given),6,-0.85,–
Cc1cc(C)cc(NC(=O)C2CCC(CNS(=O)(=O)c3ccc4c(c3)C(C)(C)C(=O)N4C)CC2)c1 (stereo not given),-13,1.23,–
COc1ccc(-c2cc(C)no2)cc1S(=O)(=O)CCC(=O)Nc1ccccc1C(F)(F)F,-17,2.23,–
Cc1ccccc1CC(=O)N1CCN(c2cccc3c2C(=O)N(C2CCCCCC2)C3=O)CC1,-7,0.94,–
